# Measurements taken from the supplement of paper PMC8291772.
# ± gives the standard error. The list shows a part of the results.
# Target: terminal deoxynucleotidyl transferase (calf thymus) (UniProt P06526)
# Assay: TdT poly-dT extension signal (Cy3 hybridisation fluorescence, uncapped minus capped) (fluorescence a.u.); higher = more efficient initiation of TdT extension
# Conditions: initiator chemistry: L-DNA (mirror-image), free 5'-OH (3'-tethered via HEG linker)
# Experimental: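 All mono- to pentamer D-DNA or L-DNA initiators were made by forward (3'->5') photolithographic in situ synthesis on glass on a hexaethylene glycol linker, leaving a free 5'-OH. Each was made in uncapped and DMTr-dT-capped versions, about 11 replicates each. Arrays were extended with calf thymus TdT (0.2 U/uL), 100 uM dTTP and 0.25 mM CoCl2 for 120 min at 37 C, hybridised with an rA18-Cy3 probe and scanned at 532 nm. The value is the mean uncapped minus the mean capped signal. IDs read 5'->3'. L-DNA is mirror-image; D-DNA 5'-OH initiators were below LOD (no extension).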
# Chain of UniProt P06526 (P06526 whole entry): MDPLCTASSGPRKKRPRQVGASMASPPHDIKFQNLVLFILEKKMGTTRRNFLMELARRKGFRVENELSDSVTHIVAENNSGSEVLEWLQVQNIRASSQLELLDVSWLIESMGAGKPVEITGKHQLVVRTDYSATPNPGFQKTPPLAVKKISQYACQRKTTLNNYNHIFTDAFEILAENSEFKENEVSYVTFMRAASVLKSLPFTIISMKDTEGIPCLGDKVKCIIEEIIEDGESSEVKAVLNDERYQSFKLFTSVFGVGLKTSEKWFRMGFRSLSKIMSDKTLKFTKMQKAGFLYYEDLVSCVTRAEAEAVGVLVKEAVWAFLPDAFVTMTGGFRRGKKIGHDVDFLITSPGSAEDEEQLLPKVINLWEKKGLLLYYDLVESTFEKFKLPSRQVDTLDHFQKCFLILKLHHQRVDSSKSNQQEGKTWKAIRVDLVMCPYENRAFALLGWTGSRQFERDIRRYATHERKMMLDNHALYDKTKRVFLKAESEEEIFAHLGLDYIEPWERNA
row,Sequence,TdT poly-dT extension signal
1,ACGAC,64.2 ± 4.2
2,CATG,78.5 ± 10
3,ATGCA,108 ± 11
4,TTGCG,273 ± 13
5,CTGTT,113 ± 11
6,GTCA,95.9 ± 6.2
7,GTACC,143 ± 13
8,TTTCT,270 ± 29
9,CAAA,96.2 ± 6.6
10,GGTGA,59 ± 7
11,GGCTG,54.3 ± 3.8
12,AGGGG,74.1 ± 13
13,TGGGA,105 ± 6.2
14,CTCAA,147 ± 10
15,ATAA,243 ± 20
16,AAATA,91.2 ± 8.3
17,CACGG,83.8 ± 5.8
18,CGGGC,61.7 ± 4.4
19,CCGT,58.5 ± 7.2
20,TCGTT,114 ± 9.9
21,TTTCA,281 ± 27
22,TTCA,275 ± 22

row,Sequence,TdT poly-dT extension signal
1,GAGAA,65.9 ± 4.4
2,GTAT,140 ± 12
3,TATAT,197 ± 14
4,CAGCG,58.2 ± 5.9
5,GGAT,71.4 ± 6.6
6,ACCCC,59.9 ± 9.1
7,GACCC,73.4 ± 6.1
8,GGTGG,89.4 ± 11
9,GCAGG,78.5 ± 7.1
10,GAGGC,53.1 ± 4.1
11,GTTA,139 ± 12
12,CCCCT,99.3 ± 8.6
13,TACTC,147 ± 15
14,GTTTA,123 ± 9.7
15,ACTGT,63.6 ± 7.2
16,AGTAG,54.2 ± 7.2
17,CCTC,76.5 ± 9.3
18,ATCAT,172 ± 14
19,ACGGG,72.6 ± 6.7
20,AGGTG,48.6 ± 4.7
21,TTGGA,284 ± 17
22,CCTG,75.8 ± 8.4

row,Sequence,TdT poly-dT extension signal
1,GGAA,79.2 ± 7.5
2,TGTTG,106 ± 9.6
3,CCCGT,98 ± 11
4,AGAAC,68.8 ± 8.4
5,GGCA,57.1 ± 4.9
6,CGTCC,38.5 ± 4.3
7,TCTAT,183 ± 10
8,ACTAA,100 ± 8.7
9,TCCCG,199 ± 19
10,ACATT,80 ± 10
11,TCTGC,137 ± 12
12,TGTCG,104 ± 7.6
13,AGGCT,29.7 ± 4.2
14,TTGAC,338 ± 26
15,GAAAG,86.3 ± 6.1
16,TTCCT,286 ± 28
17,CGCCC,60.2 ± 7.1
18,CGTT,58 ± 7.4
19,TGTCT,112 ± 8.9
20,GCGGC,73.3 ± 6.8
21,GCACT,74.3 ± 8.6
22,TCTA,181 ± 17

row,Sequence,TdT poly-dT extension signal
1,AGATT,71.6 ± 8.4
2,TCTCC,117 ± 8.4
3,ACGGA,65.6 ± 6.7
4,AGCAG,58.4 ± 5.4
5,GACTT,88.6 ± 7.5
6,CTGG,124 ± 17
7,CTAG,116 ± 12
8,GCTCA,73.4 ± 7.7
9,CCCAT,112 ± 9.1
10,CCGG,80.6 ± 5.2
11,GTCT,123 ± 12
12,TCATT,134 ± 15
13,TACGC,151 ± 16
14,CACTA,78.1 ± 6.3
15,GCCGA,98.2 ± 9.2
16,TATAA,200 ± 18
17,CTAGA,170 ± 11
18,GTGTG,108 ± 8.6
19,CTTG,132 ± 6.2
20,GAAGA,88 ± 8.5
21,ACCTC,58.7 ± 6.9
22,TGAAA,209 ± 11

row,Sequence,TdT poly-dT extension signal
1,ATGG,131 ± 12
2,CTCAT,130 ± 12
3,CAATT,68.1 ± 6.4
4,GGATC,67.1 ± 5.8
5,TGATT,168 ± 10
6,GTAA,143 ± 13
7,GGGCG,83.8 ± 6.6
8,ATGTA,118 ± 12
9,GAATT,89.7 ± 8
10,GGTGT,55.2 ± 5
11,GCACA,78.5 ± 4.8
12,TTAGG,444 ± 29
13,GCCGC,93.5 ± 6.3
14,CTGAA,147 ± 12
15,TAGT,121 ± 11
16,TCCCC,175 ± 17
17,AACT,79 ± 11
18,CCCT,93.8 ± 6.5
19,ACATG,69.4 ± 5.7
